Measurements from PubChem BioAssay AID540317 (National Center for Advancing Translational Sciences (NCATS), 2011).
Among all 390,000 compounds or so, about 2,200 (0.56%) were called active. This list was built around the results that the source calls inconclusive (neither active nor inactive); the mix of calls is not that of the screen. Calls come from the whole dose curve; as a rule, active = well fitted inhibition curve with a large enough effect; inconclusive = small, poorly fitted or top-dose-only effect; inactive = no such curve, though single readings can be large or run the other way. Where the call is inconclusive, the potency comes from a doubtful curve fit.

target: Chromobox protein homolog 1 (Homo sapiens) (UniProt P83916); test: HTS for Inhibitors of HP1-beta Chromodomain Interactions with Methylated Histone Tails; conditions: AlphaScreen HP1-beta / biotin-H3K9me3 peptide binding; series mostly up to 114 µM; note: nearly all actives have a fitted effect of over 70% in size
Sequence of UniProt P83916 (P83916 whole entry, looked up): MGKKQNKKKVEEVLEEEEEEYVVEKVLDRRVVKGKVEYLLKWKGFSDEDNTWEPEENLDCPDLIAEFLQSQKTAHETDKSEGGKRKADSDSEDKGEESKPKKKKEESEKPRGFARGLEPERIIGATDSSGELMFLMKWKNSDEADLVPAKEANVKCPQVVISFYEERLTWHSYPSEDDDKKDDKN
How it was run: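 HP1-beta protein (50 nM final) preincubated 30 min at room temperature with biotinylated H3(1-18)K9me3 peptide (50 nM) in PBS pH 7.4, 0.01% Tween-20, then compound added for 30 min. AlphaScreen streptavidin donor/nickel chelate acceptor beads (10 ug/mL final), 30 min dark, luminescence read.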
Potency is the fitted concentration of half-maximal effect; tags give direction and shape of the fitted curve.

Row | Structure (SMILES) | Potency
1 | Nc1ccc2ccccc2c1C(=O)c1ccccc1 | inconclusive: 89.1 µM [inhibitor, single point]
2 | COc1cccc(CNCC(=O)Nc2ccc(N3CCOCC3)cc2)c1 | inconclusive: 50.1 µM [inhibitor, partial curve]
3 | COc1ccccc1OCCNC(=O)C1CC(=O)N(Cc2ccc(C)cc2)C1 (stereo unspecified) | inactive
4 | O=C(CSc1nc(-c2ccccc2)cc(=O)[nH]1)N1CCc2ccccc21 | inconclusive: 8.91 µM [inhibitor, single point]
5 | COc1ccc(-c2cc(C(F)(F)F)nc(SCC(=O)NCCc3ccccc3)n2)cc1 | inconclusive: 89.1 µM [inhibitor, single point]
6 | CCN1C(=O)/C(=C2\SC(=S)N(CCCOC)C2=O)c2ccccc21 | inconclusive: 1.58 µM [inhibitor, full curve, poor fit]
7 | N#Cc1c(-n2ncnc2-c2ccc(F)cc2)sc2c1CCCCC2 | inconclusive: 12.6 µM [inhibitor, full curve]
8 | NC(=O)C1C2C=CC(C2)C1c1ccccc1 (stereo unspecified) | inactive
9 | CCCSc1ncc(Cl)c(C(=O)Nc2sc3c(c2C(=O)OC)CCCC3)n1 | inactive
10 | COc1ccccc1N1CCN(C(=O)[C@H](C)NS(=O)(=O)c2ccc3c(c2)OCCCO3)CC1 | inactive
11 | N#Cc1ccsc1NC(=O)COC(=O)CCS(=O)(=O)c1ccccc1 | inactive
12 | FC(F)(F)c1ccc(/C=N/N2CCN(Cc3ccccc3)CC2)cc1 | inconclusive: 35.5 µM [inhibitor, partial curve]
13 | COc1ccc(CNC(=O)c2cc3ccccn3n2)cc1OC | inactive
14 | CC(=O)C1=C(O)C(=O)N(c2ccc(O)cc2)C1c1ccc(F)cc1 (stereo unspecified) | inactive
15 | CCc1cc(-c2[nH]ncc2-c2ccc([N+](=O)[O-])cc2)c(O)cc1OC | inconclusive: 35.5 µM [inhibitor, partial curve]
16 | c1cncc(-c2nnc(-c3ccco3)o2)c1 | inactive
17 | CCC1CC=CC2C1C(=O)N(Cc1ccccc1)C2c1ccc(C(F)(F)F)cc1 (stereo unspecified) | inactive
18 | COc1ccc(Nc2c[nH]c(=O)[nH]c2=O)cc1 | inconclusive: 25.1 µM [inhibitor, single point]
19 | COc1ccc(-n2c(C)cc(C3=NNC(=NC4CC4)SC3)c2C)cc1 | inconclusive: 20 µM [inhibitor, partial curve, poor fit]
20 | COc1ccc(NC(=O)CCNC(=O)C2CCN(S(=O)(=O)c3ccc(F)cc3)CC2)cc1OC | inconclusive: 39.8 µM [inhibitor, single point]
21 | COc1ccc(/C=N/n2c(-c3n[nH]c4c3CCC4)n[nH]c2=S)c(OC)c1OC | inconclusive: 11.2 µM [inhibitor, partial curve, poor fit]
